# Test results taken from the supplement of paper PMC4967469.
# Compound: Cn1cc(C2=C(c3cn(C4CCN(Cc5ccccn5)CC4)c4ccccc34)C(=O)NC2=O)c2ccccc21 [LY317615]
# Experiment: Viability of human cancer cell lines after 72 h of drug (GDSC screen)
# Details: top dose inferred
# Method: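 Human cancer cell lines in 384-well plates, medium with 10% serum, drug for 72 h over a 256-fold dose range (nine 2-fold or five 4-fold steps up to the top dose). Adherent lines were fixed and stained with the nucleic acid dye Syto60, suspension lines read with resazurin; signal relative to control wells, capped at 0 and 100%. One two-parameter sigmoid per drug and line, fitted in a mixed model over all curves with the slope shared within a line.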
Cell Line,AUC,IC50 [µM]
"TOV-21G (ovary, adherent, top dose 20 µM)",0.504,1.28
"KP-1N (pancreas, adherent, top dose 10.24 µM)",0.826,6.58
"NCI-H1581 (large cell lung carcinoma, semi-adherent, top dose 20 µM)",0.929,> 20
"ESS-1 (endometrium, adherent, top dose 20 µM)",0.936,> 20
"RCC-FG2 (kidney, adherent, top dose 20 µM)",0.758,8.77
"MOG-G-CCM (glioma, adherent, top dose 20 µM)",0.769,8.84
"HSC-4 (head and neck, adherent, top dose 20 µM)",0.976,> 20
"HCC1428 (breast, adherent, top dose 20 µM)",0.95,> 20
"CAL-120 (breast, adherent, top dose 20 µM)",0.97,> 20
"RERF-LC-Sq1 (lung squamous cell carcinoma, adherent, top dose 20 µM)",0.845,> 20
"LU-139 (small cell lung carcinoma, suspension, top dose 20 µM)",0.785,11.3
"MC116 (B-cell lymphoma, suspension, top dose 20 µM)",0.595,2.11
"OVISE (ovary, adherent, top dose 20 µM)",0.924,> 20
"DAN-G (pancreas, adherent, top dose 20 µM)",0.972,> 20
"ChaGo-K-1 (non-small cell lung carcinoma, adherent, top dose 20 µM)",0.789,10.5
"GCT (soft tissue, adherent, top dose 20 µM)",0.987,> 20
"KU812 (chronic myeloid leukaemia, suspension, top dose 20 µM)",0.848,13
"CP50-MEL-B (melanoma, adherent, top dose 20 µM)",0.962,> 20
"COLO-679 (melanoma, adherent, top dose 20 µM)",0.864,> 20
"SF539 (glioma, adherent, top dose 20 µM)",0.878,16.7
"OCI-M1 (acute myeloid leukaemia, suspension, top dose 20 µM)",0.579,1.95

Cell Line,AUC,IC50 [µM]
"A3-KAW (B-cell lymphoma, suspension, top dose 20 µM)",0.764,5.91
"PCI-38 (head and neck, adherent, top dose 20 µM)",0.909,> 20
"COLO-829 (melanoma, adherent, top dose 20 µM)",0.776,12.2
"D-423MG (glioma, adherent, top dose 20 µM)",0.801,12.3
"KARPAS-422 (B-cell lymphoma, suspension, top dose 20 µM)",0.931,> 20
"RXF393 (kidney, adherent, top dose 20 µM)",0.638,3.5
"HSC-2 (head and neck, adherent, top dose 20 µM)",0.981,> 20
"SK-MES-1 (lung squamous cell carcinoma, adherent, top dose 20 µM)",0.742,6.6
"PANC-08-13 (pancreas, adherent, top dose 20 µM)",0.617,2.88
"NCI-H716 (large intestine, suspension, top dose 20 µM)",0.776,10.1
"NCI-H810 (large cell lung carcinoma, adherent, top dose 20 µM)",0.963,> 20
"CAMA-1 (breast, adherent, top dose 20 µM)",0.885,> 20
"NCI-H2170 (lung squamous cell carcinoma, adherent, top dose 20 µM)",0.901,> 20
"EPLC-272H (lung squamous cell carcinoma, adherent, top dose 20 µM)",0.519,1.42
"NMC-G1 (glioma, adherent, top dose 20 µM)",0.514,1.38
"KMRC-20 (kidney, adherent, top dose 20 µM)",0.986,> 20
"OSC-19 (head and neck, adherent, top dose 20 µM)",0.934,> 20
"NCI-H2228 (lung adenocarcinoma, adherent, top dose 20 µM)",0.675,4.98
"LN-405 (glioma, adherent, top dose 20 µM)",0.92,> 20
"CP66-MEL (melanoma, adherent, top dose 20 µM)",0.927,> 20
"SK-OV-3 (ovary, adherent, top dose 20 µM)",0.381,0.538

Cell Line,AUC,IC50 [µM]
"CAL-29 (bladder, adherent, top dose 20 µM)",0.821,12.8
"EJM (lymphoid neoplasm, semi-adherent, top dose 20 µM)",0.914,> 20
"HT-115 (large intestine, adherent, top dose 20 µM)",0.965,> 20
"23132-87 (stomach, adherent, top dose 20 µM)",0.971,> 20
"SNU-182 (liver, adherent, top dose 10.24 µM)",0.83,6.82
"LC4-1 (lymphoblastic leukaemia, suspension, top dose 20 µM)",0.823,13.5
"SK-HEP-1 (liver, adherent, top dose 20 µM)",0.989,> 20
"HeLa (cervix, adherent, top dose 20 µM)",0.942,> 20
"EW-1 (Ewing sarcoma, semi-adherent, top dose 20 µM)",0.873,16.5
"SNU-C2B (large intestine, adherent, top dose 20 µM)",0.77,10
"IM-95 (stomach, adherent, top dose 20 µM)",0.643,3.19
"NH-12 (neuroblastoma, adherent, top dose 20 µM)",0.671,3.98
"NCI-SNU-5 (stomach, suspension, top dose 20 µM)",0.989,> 20
"NEC8 (testis, adherent, top dose 20 µM)",0.952,> 20
"SK-LU-1 (lung adenocarcinoma, adherent, top dose 20 µM)",0.631,3.18
"BICR10 (head and neck, adherent, top dose 20 µM)",0.984,> 20
"NCI-H748 (small cell lung carcinoma, suspension, top dose 20 µM)",0.886,> 20
"CHSA0108 (chondrosarcoma, adherent, top dose 20 µM)",0.853,19.5
"BT-483 (breast, adherent, top dose 20 µM)",0.678,6.14
"LXF-289 (lung adenocarcinoma, adherent, top dose 20 µM)",0.753,6.58
"KYSE-510 (oesophagus, adherent, top dose 20 µM)",0.927,> 20

Cell Line,AUC,IC50 [µM]
"SK-MG-1 (glioma, adherent, top dose 20 µM)",0.78,8.35
"UACC-893 (breast, adherent, top dose 20 µM)",0.842,> 20
"LS-123 (large intestine, adherent, top dose 20 µM)",0.86,> 20
"SK-ES-1 (Ewing sarcoma, semi-adherent, top dose 20 µM)",0.959,> 20
"TT2609-C02 (thyroid, adherent, top dose 20 µM)",0.76,7.46
"RF-48 (stomach, adherent, top dose 20 µM)",0.827,14.2
"MDA-MB-231 (breast, adherent, top dose 20 µM)",0.986,> 20
"ETK-1 (biliary tract, adherent, top dose 20 µM)",0.737,6.61
"NB(TU)1-10 (neuroblastoma, adherent, top dose 20 µM)",0.992,> 20
"CAL-85-1 (breast, adherent, top dose 20 µM)",0.85,> 20
"NCI-H1793 (lung adenocarcinoma, adherent, top dose 20 µM)",0.982,> 20
"Hs-445 (Hodgkin lymphoma, suspension, top dose 20 µM)",0.56,1.79
"CCK-81 (large intestine, adherent, top dose 20 µM)",0.42,0.764
"COLO-783 (melanoma, adherent, top dose 20 µM)",0.989,> 20
"WSU-DLCL2 (B-cell lymphoma, suspension, top dose 20 µM)",0.931,> 20
"AsPC-1 (pancreas, adherent, top dose 20 µM)",0.762,12.8
"CHL-1 (melanoma, adherent, top dose 20 µM)",0.969,> 20
"201T (lung adenocarcinoma, adherent, top dose 20 µM)",0.688,4.86

# By IC50 is meant the dose at which the fit gives 50% viability; fits outside the tested doses are given as limits. The AUC spans the tested range (256-fold, ending at the top dose) of the same fit; values near 1 show little effect. The top dose, if marked as inferred, was derived from the fitted curves, not read from the paper.
